PubChem BioAssay AID463173 (ICCB-Longwood Screening Facility, Harvard Medical School, 2010)
Screen size: about 52,000 compounds; about 1,700 (3.3%) were called active. No stated cut-off is given here; in the data, active means survival mostly below about 52% (no sharp cut-off); inactive means mostly above about 56%. The list shows a part of the results.

test system: Wild type; test: S. aureus survival, RN4220 and DeltatarO strains – OD600, teichoic acid synthesis inhibitors, primary screen (AID 463173); conditions: S. aureus RN4220 wild type/DeltatarO growth, OD600, 18 h, active compounds read low, screened at 18.75 µg/mL (by protocol)

Row | SMILES | survival
1 | Cc1[nH]c2ccccc2c1Cc1nnc(SCC(N)=O)n1Cc1ccco1 | inactive: 107%
2 | Cc1ccc(S(=O)(=O)c2c(O)cc(C)c(NS(=O)(=O)c3ccc(Cl)cc3)c2C)cc1 | inactive: 105%
3 | COc1ccccc1N1CCN(S(=O)(=O)c2c(C)nc3sccn3c2=O)CC1 | inactive: 89%
4 | Cc1cc(C)c2sc(N3CCN(C(=O)c4ccc(N(C)C)cc4)CC3)nc2c1 | inactive: 136%
5 | CC(C)c1nn2c(=O)cc(COC(=O)c3ccco3)nc2s1 | inactive: 68%
6 | COc1ccccc1C(=O)Nc1ccc(C(=O)OCc2cc(=O)n3nc(C4CC4)sc3n2)cc1 | inactive: 71%
7 | COc1ccc(N2C(=O)CSC23C(=O)N(CC(=O)NCCc2ccccc2)c2ccccc23)cc1 (stereo not drawn) | inactive: 71%
8 | O=C(CSc1nc(=O)[nH]c2c1CCCC2)NCc1ccccc1 | inactive: 69%
9 | Cc1c(C)c2cc3c(c(C)c2oc1=O)OCN(CCc1ccc(F)cc1)C3 | inactive: 83%
10 | Cc1nn2c(C)c(C(=O)NC(C)(C)C)cnc2c1-c1ccc(F)cc1 | inactive: 120%
11 | Cc1ccc(N2CC(NC(=O)c3cc4ccccc4o3)CC2=O)cc1 (stereo not drawn) | inactive: 124%
12 | CCc1ccc(Cn2c(CNS(=O)(=O)c3ccc(C)c(C)c3)nc3cccnc32)cc1 | inactive: 71%
13 | COc1ccc(NC(=O)Cn2c(=O)n(Cc3ccccc3)c(=O)c3sc4ccccc4c32)cc1 | inactive: 79%
14 | CCCCNC(=O)c1cc2n(n1)CCCN(Cc1ccc(C)cc1)C2=O | active: 0%
15 | CCOc1ccc(C(=O)Nc2ccc3oc(-c4ccc5ccccc5c4)nc3c2)cc1 | inactive: 81%
16 | COc1ccc(CNC(=O)CCc2c(C)c3cc4c(C)coc4c(C)c3oc2=O)cc1OC | inactive: 82%
17 | CN1CCN(CC(=O)N(c2ccccc2)c2ccc(O)cc2)CC1 | inactive: 90%
18 | O=C1NCCN1C(=O)NC1CCCCC1 | inactive: 108%
19 | CCCCN(C)CCNC(=O)c1cc2c(=O)n(C)c3ccccc3c2n1C | inactive: 86%
20 | Cc1ccc(S(=O)(=O)CC(=O)N2CCN(c3nc4c(F)cccc4s3)CC2)cc1 | active: -6%
21 | CN1C(=O)c2ccccc2Sc2ccc(NC(=O)c3ccc(C(F)(F)F)cc3)cc21 | inactive: 80%
22 | N#Cc1ccccc1NS(=O)(=O)c1ccc(N2CCCCS2(=O)=O)cc1 | inactive: 80%

Row | SMILES | survival
23 | CCCc1nn2c(=O)cc(COC(=O)c3ccc(NC(=O)COc4ccccc4)cc3)nc2s1 | inactive: 83%
24 | CCn1c2c(c(=O)n3ncc(C(=O)N4CCN(c5ccc(Cl)cc5)CC4)c13)CN(Cc1ccc(OC)cc1)CC2 | inactive: 75%
25 | CCC(Oc1ccc(F)cc1)C(=O)Nc1c(C(=O)c2ccc(C)cc2)oc2ccccc12 (stereo not drawn) | inactive: 76%
26 | CCn1cc(C(=O)N2CCN(c3ccccc3)CC2)c(=O)c2cc(S(=O)(=O)N3CCOCC3)ccc21 | inactive: 82%
27 | COc1ccc(C(=O)CSc2nnc(-c3ccoc3C)n2CC(C)C)cc1 | inactive: 102%
28 | COc1ccc(-c2nc3scc(CCNS(=O)(=O)c4ccc(F)cc4C)n3n2)cc1 | inactive: 82%
29 | c1cnc2c(c1)NC1(CCCCC1)N2 | inactive: 97%
30 | COC(=O)c1cc2oc3ccccc3c2n1Cc1ccc(Cl)cc1 | inactive: 21%
31 | O=C1CSC2(C(=O)N(Cc3cccc(F)c3)c3ccccc32)N1c1cccc(C(F)(F)F)c1 (stereo not drawn) | inactive: 83%
32 | CC(C)COc1ccc(C(=O)N2CCN(CCc3ccncc3)CC2)cc1 | inactive: 88%
33 | CCN(CC)CCNC(=O)c1cc2c(=O)n(C)c3cc(Cl)ccc3c2s1 | inactive: 88%
34 | CCOC(=O)c1[nH]c(C)c(CCC(=O)NCc2ccc(CC)cc2)c1C | inactive: 83%
35 | COc1cccc(CN2c3ccccc3-c3nc(SCC(=O)Nc4ccccc4Cl)ncc3S2(=O)=O)c1 | inactive: 66%
36 | Cc1ccc(-c2ccc(=O)n(CCC(=O)NCCc3ccccc3)n2)cc1 | inactive: 92%
37 | COc1ccc(Nc2cc(C(=O)NCCCN3CCN(c4ccccc4F)CC3)c3ccccc3n2)c(OC)c1 | inactive: 46%
38 | COc1ccc(NC(=O)c2ccc3nc(C(C)C)oc3c2)cc1OC | inactive: 75%
39 | COc1ccc(N(C)C(=O)c2cn(C)c(=O)c3cc(OC)c(OC)cc23)cc1 | inactive: 140%
40 | Cc1ccc(Cn2c(CO)cnc2SCC(=O)Nc2ccc(C)c(Cl)c2)cc1 | active: -6%
41 | CCN1CCc2c(sc(-n3cccc3)c2C(C)NC(=O)Nc2ccc(Br)cc2)C1 (stereo not drawn) | inactive: 73%
42 | COc1ccc(NC(=O)Cn2cc(S(=O)(=O)c3ccccc3)c(=O)c3cc4c(cc32)OCO4)cc1 | inactive: 79%
43 | COc1ccc(N(Cc2cccs2)C(=O)c2ccc(OC)c(Cl)c2)cc1 | inactive: 90%
44 | Cc1cccc(N2CCN(C(=O)C3CCN(S(=O)(=O)c4c(C)noc4C)CC3)CC2C)c1 (stereo not drawn) | inactive: 99%

Row | SMILES | survival
45 | CCCC(=O)OCc1cnc(C)c2oc(=O)c(C(=O)Nc3cccc(C(F)(F)F)c3)cc12 | inactive: 76%
46 | CCC(=O)Nc1ccccc1-c1nc2ccccc2n(CC(=O)Nc2ccccc2OC)c1=O | inactive: 84%
47 | CCCS(=O)(=O)c1c(S(=O)(=O)CCC)c2cc(C(C)(C)C)ccn2c1C(=O)c1ccccc1 | inactive: 102%
48 | Cc1c(C(=O)Nc2ccccc2)sc2nc(-c3cc4cc(Cl)ccc4oc3=O)[nH]c(=O)c12 | inactive: 86%
49 | COc1cccc(N2CCN(C(=O)C3CCN(S(=O)(=O)c4c(C)noc4/C=C/c4ccccc4F)CC3)CC2)c1 | inactive: 73%
50 | COC(=O)c1ccc(NC(=O)CC2C(=O)N(c3ccccc3)C(=O)N2Cc2ccc(F)cc2)cc1 (stereo not drawn) | active: 14%
51 | CC1CCN(C(=O)C(C)Sc2nnc3c(n2)[nH]c2ccccc23)CC1 (stereo not drawn) | inactive: 106%
52 | CCc1ccccc1N/C=C(\C#N)c1nc2ccccc2[nH]1 | inactive: 140%
53 | Cc1ccccc1C(=O)Nc1ccc2nc(N3CCCCC3)cc(C)c2c1 | inactive: 62%
54 | CC(C)(C)C(=O)NCC(c1ccc2c(c1)OCO2)N1CCOCC1 (stereo not drawn) | active: -2%
55 | O=C(CSc1nnc(-c2cccs2)o1)Oc1ccccc1Cl | inactive: 84%
56 | COc1cccc(N2CCN(C(=O)c3cc4c(s3)-c3ccccc3OC4)CC2)c1 | inactive: 103%
57 | CCN(CC)C(=O)c1sc2c(c1C)c(=O)n(CCc1ccccc1)c(=O)n2Cc1cc(C)ccc1C | inactive: 88%
58 | O=C(Cn1ccn(-c2ccc(F)cc2)c(=O)c1=O)Nc1ccc(F)cc1 | inactive: 84%
59 | O=C(NCCc1ccc(Cl)cc1)c1ccc(CS(=O)(=O)c2ccc(Cl)cc2)o1 | inactive: 71%
60 | Cc1cccc(C)c1NC(=O)C(NS(=O)(=O)c1cccs1)c1ccccc1 (stereo not drawn) | inactive: 93%
61 | O=C(Cn1ncc2c3ccccc3n(Cc3cccc(Cl)c3)c2c1=O)Nc1ccc(F)cc1F | inactive: 89%
62 | COc1ccc(CC(NC(C)=O)C(=O)NC2CCN(c3nc(OC)nc(OC)n3)CC2)cc1 (stereo not drawn) | inactive: 108%
63 | CC(C)c1ccc(NC2=NCC(=O)N2Cc2ccccc2)cc1 | inactive: 111%
64 | CCc1nnc(NC(=O)CSC2=NC(=O)C(NC(C)=O)C(=O)N2)s1 (stereo not drawn) | inactive: 107%
65 | COc1cc(CNC(=O)c2ccc3c(c2)c(C)c(C)n3Cc2cccc(C)c2)cc(OC)c1OC | inactive: 135%
66 | CCN(Cc1ccccc1)Cc1nnnn1CCOC | inactive: 97%

Row | SMILES | survival
67 | CCOc1ccc(NC(=O)c2cc(S(=O)(=O)N3CCN(c4ccccc4F)CC3)ccc2F)cc1 | inactive: 73%
68 | Cc1ccc2[nH]c(=O)c3cc(C(=O)NC4CCC(C)CC4)sc3c2c1 (stereo not drawn) | inactive: 69%
69 | CCCCN(C)C(=O)CSc1nc2ccccc2nc1Cc1ccc(C)cc1 | active: 0%
70 | COc1ccc(-n2c(=O)c3c4c(sc3n(C)c2=O)CN(C(C)=O)CC4)cc1 | inactive: 75%
71 | O=c1cc(-c2ccccc2)n2c(SCc3ccccc3Cl)nnc2[nH]1 | inactive: 66%
72 | COc1ccccc1CNC(=O)C(=O)NCC(c1cccs1)S(=O)(=O)c1cccs1 (stereo not drawn) | inactive: 72%
73 | CCSc1nnc2n(-c3ccccc3)c(=O)c3c4c(sc3n12)CCCC4 | inactive: 108%
74 | Cc1ccc2oc(C(=O)N(Cc3sccc3C)C3CCS(=O)(=O)C3)c(C)c2c1 (stereo not drawn) | inactive: 76%
75 | CCOc1ccc(Nc2c(S(=O)(=O)c3ccc(C)cc3)cnc3ccc(F)cc23)cc1 | inactive: 64%
76 | COc1cccc2c1cc1c(=O)n(CC(=O)NCc3ccco3)nc(C)n12 | inactive: 85%
77 | COc1ccccc1C(=O)Nc1nnc2n1CCS2 | inactive: 68%
78 | Cc1c(Cl)cccc1NC(=O)CSc1nc(=O)n(Cc2ccco2)c2c1CCC2 | inactive: 120%
79 | CC(C)OCc1cc(CN2CCN(c3cccc(C(F)(F)F)c3)CC2)c(O)c2ncccc12 | inactive: 73%
80 | Cc1ccc(CCNC(=O)CN(c2ccc(C)cc2)S(=O)(=O)N(C)C)cc1 | inactive: 88%
81 | CCSc1nnc2c(n1)OC(c1ccc(OC)c(OC)c1)N(C(C)=O)c1ccccc1-2 (stereo not drawn) | inactive: 70%
82 | CN(C)c1ccc(CNC(=O)C2CCN(Cc3cc4ccccc4n3Cc3ccccc3)CC2)cc1 | inactive: 128%
83 | CCCCCNC(=O)C1CCC(Cn2c(=O)c3sccc3n(CC(=O)NCc3cccc(OC)c3OC)c2=O)CC1 (stereo not drawn) | inactive: 87%
84 | CCCCC(=O)Nc1nnc(S(=O)(=O)N(C)Cc2ccccc2)s1 | inactive: 86%
85 | Cc1sc2ccccc2[n+]1CCCO | inactive: 103%
86 | Cc1cccc(N(C)S(=O)(=O)c2cc3[nH]c(=O)c(=O)[nH]c3cc2C)c1 | inactive: 78%
87 | CCCCC1(C(=O)OC)NC(c2ccc(O)cc2)C2C(=O)N(c3ccccc3)C(=O)C21 (stereo not drawn) | inactive: 99%
88 | O=C1C(=O)N(C2CCN(C(=O)c3ccccc3F)CC2)CCN1Cc1ccc(F)cc1 | inactive: 60%
